Laboratory results: article PMC13083723 (Patterns, 2026)
The whole screen tested about 5,400 compounds, of which about 190 (3.5%) showed an effect of 50% or more. Some of the results follow.

These molecules were tested on Vero-E6 (assay: primary screen, phospholipidosis by LipidTOX staining; higher = more effect of the substance). Details: 10 µM.
In short: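 Single-concentration screen at 10 μM, with DMSO 0.1 v/v % and amiodarone 10 μM as controls. Read-out is LipidTOX Red phospholipid staining, which tolerates aldehyde fixation, in Vero-E6 cells.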

| Compound | result_ITMP [%] |
| --- | --- |
| CC(C)(CO)[C@@H](O)C(=O)NCCC(=O)[O-] | 1.43 |
| O=c1ccc2ccccc2o1 | 1.2 |
| O=C(CCCN1CCC2(CC1)C(=O)N(Cc1cccc(F)c1)CN2c1ccccc1)c1ccc(F)cc1 | 89 |
| O=C(O)COc1ccc(/C=C2\SC(=O)NC2=O)cc1 | 4.17 |
| NCCOB(c1ccccc1)c1ccccc1 | -1.28 |
| COc1ccccc1N1CCN(CCCCN2C(=O)CCC2=O)CC1 | 6.62 |
| CN[C@@H]1[C@H](O)[C@H](NC)[C@H]2O[C@@]3(O)C(=O)C[C@@H](C)O[C@H]3O[C@@H]2[C@H]1O | -2.31 |
| CN(C)CCCN1c2ccccc2Sc2ccc(Cl)cc21 | 104 |
| O=C([O-])c1cc(/N=N/c2ccc(O)c(C(=O)[O-])c2)ccc1O | -2.29 |
| CCN(CC)C(=O)c1ccc(C2=CC3(CCNCC3)Oc3cccc(O)c32)cc1 | -2.96 |
| CCOc1ccc2[nH]c(SCCN3CCOCC3)nc2c1 | 0.41 |
| S=C(NC1CCCCC1)N1CCC(c2c[nH]cn2)CC1 | 1.61 |
| CCCCOc1cc(CC2CNC(=O)N2)ccc1OC (stereo not shown) | -1.11 |
| O=C1NC(=O)/C(=C/c2ccc3c(c2)OC(F)(F)O3)S1 | 21.7 |
| CC[C@H]1[C@@H](O)[C@@H]2[C@H](CC[C@]3(C)[C@@H]([C@H](C)CCC(=O)O)CC[C@@H]23)[C@@]2(C)CC[C@@H](O)C[C@@H]12 | -0.78 |
| COc1cc([C@@H]2c3cc4c(cc3[C@@H](O[C@@H]3O[C@@H]5CO[C@@H](c6cccs6)O[C@H]5[C@H](O)[C@H]3O)[C@H]3COC(=O)[C@H]23)OCO4)cc(OC)c1O | -0.84 |
| O=C(O)c1c(Sc2ccccc2)c2cc(Cl)ccc2n1Cc1ccc(Cl)cc1 | -2.03 |
| c1cncc(CN2CCC(n3ncc4c(N5CCOCC5)nc(-c5ccc6[nH]ccc6c5)nc43)CC2)c1 | 4.24 |
| COC1CCN(C(=O)c2cc(Cc3n[nH]c(=O)c4ccccc34)ccc2F)CC1 | 2.83 |
| CCOC(=O)OC(C)OC(=O)C1N2C(=O)C(NC(=O)[C@H](N)c3ccccc3)C2SC1(C)C (stereo partly shown) | -2.51 |
| Clc1cccc(Cl)c1CSc1nnc(-c2cnccn2)s1 | -6.45 |
| C#C[C@]1(O)CCC2C3CCc4cc(O)ccc4C3CC[C@@]21C (stereo partly shown) | -0.56 |
| O=C(CN1CCNCC1)NC1CCCCC1 | -1.25 |

| Compound | result_ITMP [%] |
| --- | --- |
| O=C(/C=C/c1cccnc1)c1ccncc1 | -2.24 |
| C[C@@]12C(=O)OC(=O)[C@]1(C)[C@H]1CC[C@@H]2O1 | 7.41 |
| CNCCN(C)Cc1c[nH]nc1-c1ccc(O[C@H]2C[C@H](OCCC3CCOCC3)C2)cc1 | -0.71 |
| O=C1COc2c(CCNCCN(C(=O)CCNCCc3ccc(Cl)c(Cl)c3)C3CCCCC3)ccc(O)c2N1 | -0.19 |
| C[N+](C)(C)[C@@H](Cc1c[nH]c(=S)[nH]1)C(=O)[O-] | -5.73 |
| CC1(C)CCC(C)(C)c2cc(C#Cc3ccc(C(=O)O)cc3)ccc21 | -1.28 |
| N[C@@]1(C(=O)O)CC[C@H](C(=O)O)C1.N[C@]1(C(=O)O)CC[C@@H](C(=O)O)C1 | -0.35 |
| Cn1cc(-c2ccncc2)c(-c2ccc(OCc3ccc4ccccc4n3)cc2)n1 | 10.3 |
| O=C(O)[C@H]1O[C@@H](Oc2cc3oc(-c4ccccc4)cc(=O)c3c(O)c2O)[C@H](O)[C@@H](O)[C@@H]1O | -8.18 |
| CCN1CCC(n2cc(CNc3cc(Cl)c4ncc(C#N)c(Nc5ccc(F)c(Cl)c5)c4c3)nn2)CC1 | 9.34 |
| C=C1C(=O)O[C@H]2[C@H]1CC/C(C)=C/CC[C@@]1(C)O[C@@H]21 [R4A_0002204_002 / SPE_K98548675] | 4.35 |
| O=c1[nH]c(=O)c2ccccc2o1 | -0.99 |
| O=S1(=O)c2cccc3cccc(c23)N1CCCN1CCN(c2ccc(F)cc2)CC1 | 0.28 |
| Nc1ncnc2c1ncn2C1CCCO1 (stereo not shown) | -2.16 |
| Cc1cc(C)c(S(=O)(=O)n2cc(C)cc2C)c(C)c1 | -10.5 |
| Cc1[nH]c2ccccc2c1CCNCc1ccc(/C=C/C(=O)NO)cc1 | -0.03 |
| Cc1ncc(Cl)cc1NCc1ccc(C(=O)N[C@@H](CC2CCCC2)C(=O)NC2CC2)s1 | -2.09 |
| C=CC(C)(C)c1cc(/C=C/C(=O)c2ccc(O)cc2)c(OC)cc1O | -6.16 |
| O=C(O)c1ccccc1Nc1ccc(CCc2ccc(Cl)c(Cl)c2)cc1 | -7.3 |
| O=C(c1cc2ccccc2o1)N1CCN(Cc2ccccc2)CC1 | 1.62 |
| C[C@]12CC[C@@H]3c4ccc(OS(=O)(=O)O)cc4CC[C@H]3[C@@H]1CCC2=O | 10.8 |
| Cc1ccc(C(=O)Nc2ccc(S(=O)(=O)[O-])c3cc(S(=O)(=O)[O-])cc(S(=O)(=O)[O-])c23)cc1NC(=O)c1cccc(NC(=O)Nc2cccc(C(=O)Nc3cc(C(=O)Nc4ccc(S(=O)(=O)[O-])c5cc(S(=O)(=O)[O-])cc(S(=O)(=O)[O-])c45)ccc3C)c2)c1 | -3.34 |
| Cc1ccc(S(=O)(=O)NC(=O)NN2CCCCCC2)cc1 | -4.53 |

| Compound | result_ITMP [%] |
| --- | --- |
| COc1cc2c(CCNC(C)=O)c[nH]c2cc1Cl | -2.44 |
| Cn1cccc1/C=C1\C(=O)NC(=O)c2ccccc21 | -1.64 |
| CCC(=O)OC(Cc1ccccc1)(c1ccccc1)C(C)CN(C)C (stereo not shown) | 15 |
| N=C(N)NCCCC(NC(=O)C1CCCN1C(=O)C1CSSCCC(=O)NC(Cc2ccc(O)cc2)C(=O)NC(Cc2ccccc2)C(=O)NC(CCC(N)=O)C(=O)NC(CC(N)=O)C(=O)N1)C(=O)NCC(N)=O (stereo not shown) | 3.95 |
| CN1CCN(c2c(F)cc3c(=O)c(C(=O)O)cn4c3c2OCN4C)CC1 | 2.58 |
| CC(C)(C)CC(C)(C)c1ccc(O)c(Cc2ccc(Cl)cc2Cl)c1 | -7.19 |
| O=C([O-])c1ccccc1-c1c2cc(I)c(=O)c(I)c-2oc2c(I)c([O-])c(I)cc12 | 7.91 |
| CC1(C)[C@@H]2CC[C@@]1(C)C(=O)C2 [R4A_0000828_001 / SPE_K10034334] | -2.3 |
| NCCc1c[nH]c2ccc(C(N)=O)cc12 | 1.09 |
| c1ccc(Oc2cccnc2)cc1 | 13 |
| CCOC(=O)c1ccc(N)cc1 | -4.72 |
| CCCCCCCCCCCCc1ccc(S(=O)(=O)Nc2nncs2)cc1 | -1.38 |
| CC1c2ccccc2CN1CC1=NCCN1 (stereo not shown) | -2.66 |
| OC(CCCN1CCCCC1)(c1ccccc1)c1ccccc1 | 16.2 |
| CCN(CC)CCOC(=O)C(c1ccccc1)c1ccccc1 | 3.73 |
| Nc1nc(NC2CC2)c2ncn([C@H]3C=C[C@@H](CO)C3)c2n1 | -2.62 |
| Nc1cc(F)ccc1NC(=O)/C=C/c1cnn(C/C=C/c2ccccc2)c1 | 3.65 |
| COc1cccc(CN(C(=O)CC(C)(C)C)[C@H]2C[C@@H](C(=O)N3CCNCC3)N(Cc3ccc4c(c3)OCO4)C2)c1 | 37.3 |
| CCOc1ccc2nc3cc(N)ccc3c(N)c2c1 | -10.8 |
| CCN(CC)CCNc1ccc(CO)c2sc3ccccc3c(=O)c12 | 43.4 |
| CCCCCCCCC(=O)NCc1ccc(O)c(OC)c1 | 4.32 |
| CN(Cc1cnc2nc(N)nc(N)c2n1)c1ccc(C(=O)N[C@@H](CCC(=O)O)C(=O)O)cc1 | -3.08 |
| O=C(COc1ccc(Cl)cc1)N1CCN(Cc2ccc3c(c2)OCO3)CC1 | -5.87 |

| Compound | result_ITMP [%] |
| --- | --- |
| CNC(C)CCC=C(C)C (stereo not shown) | -6.77 |
| Cc1ccsc1/C=C/C1=NCCCN1C | -4.71 |
| CCCCCCCCCCCCCCCCOP(=O)([O-])OCC[N+](C)(C)C | 3.31 |
| CCCn1c(=O)[nH]c2nc(-c3ccc(S(=O)(=O)O)cc3)[nH]c2c1=O | 5.6 |
| CC/C(=C(/c1ccc(/C=C/C(=O)O)cc1)c1ccc2[nH]ncc2c1)c1ccc(F)cc1Cl | -2 |
| COc1cc(C(C)=O)ccc1O | -3.65 |
| O=C(Nc1cnccc1Cl)N1CCN(Cc2ccc3c(c2)OC(F)(F)O3)CC1 | -2.58 |
| C[N+](C)(C)CCOC(=O)CCC(=O)OCC[N+](C)(C)C | 0.96 |
| CSc1ccc(OCc2ncc([N+](=O)[O-])n2C)cc1 | -2.82 |
| CN1CCN2c3c(cccc31)[C@@H]1CN(CCCC(=O)c3ccc(F)cc3)CC[C@@H]12 | 19.4 |
| Oc1ccc2c(c1)CC[C@H](c1ccccc1)[C@@H]2c1ccc(OCCN2CCCC2)cc1 | 21.4 |
| CC(=O)/N=c1\sc(S(N)(=O)=O)nn1C | -9.22 |
| Cc1cnc(NC(=O)c2cc(Oc3cnc(C(=O)N(C)C)nc3)c3cc(C)oc3c2)cn1 | -0.82 |
| C/C(=C\c1ccc(C(=O)O)cc1)c1ccc2c(c1)C(C)(C)CCC2(C)C | -1.89 |
| CCCCCCCCCCCCCCCCOc1nc2ccc(C)cc2c(=O)o1 | -1.94 |
| O=c1[nH]c2ccc(Cl)cc2c(N[C@@H]2CN3CCC2CC3)c1-c1nc2ccccc2[nH]1 | 28.6 |
| OC(CN1CCN(c2cccc(Cl)c2)CC1)C(c1ccccc1)c1ccccc1 (stereo not shown) | 5.28 |
| CCn1cc(C(=O)O)c(=O)c2ccc(-c3ccncc3)cc21 | -2.9 |
| CC/C(=C(/CC)c1ccc(O)cc1)c1ccc(O)cc1 | -2.48 |
| Cc1nnc(C[C@@H]2C=C(c3ccc(Cl)cc3)c3ccccc3-n3c(C)nnc32)o1 | -0.73 |
| Nc1nc(OCc2ccccc2)c2nc[nH]c2n1 | -2.86 |
| CCC1(c2ncc[nH]2)Cc2ccccc2O1 (stereo not shown) | -2.25 |
